In the supplement of paper PMC10126150:
Sequences with one replicate were seen in a single cluster, so their values are uncertain.

Test system: ATP
Assay: switch fluorescence ratio, 500 uM ATP over buffer (Cy3 cluster intensity, sum of 5 cycles each) (fold (ratio)); higher = stronger signal-on switching upon ATP binding; sequences stand for … in TCGTCGGCAGCGTCAGATGTGTATAAGAGACAGTTTTTTTTTTTTTTTTTTTTTTTTT…TC
Settings: aptamer strand: ATP DNA aptamer (quencher-CACCTGGGGGAGTATTGCGGAGGAAGG + anchor), 100 nM annealed; ATP concentration: 500 uM; one replicate
Method in brief: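 Clusters carrying Cy3-labelled switching strands on a modified Illumina MiSeq flow-cell were annealed to 100 nM quencher-labelled ATP aptamer and imaged in selection buffer. They were imaged again after 15 min with 500 uM ATP at 22 °C, over five buffer/ATP cycles with NaOH stripping and re-annealing in between. For each cluster, the fluorescence ratio is the summed Cy3 intensity of the target cycles divided by that of the buffer cycles, averaged per switch-domain sequence. Clusters outside 100-1000 RFU were left out.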
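Also: ATP exposure 15 min at 22 °C before imaging.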

Sequence	switch fluorescence ratio
TAACTGATTT	1.03
ATCCCTCCG	2.15
CCGGCGCGGT	5.63
GGTTTGTGAA	0.981
TGGCGTTTGT	0.995
TCTCATATTA	0.987
CTCGCCGACC	1.33
ATTGTGAGAA	0.997
GTTCCGGGAT	1
ATGGCGCGTA	0.915
ACGTCATCCG	1.21
ATTCCTGTCT	0.966
CCATTAGTAG	1.04
GAGAGAGTG	0.976
TCTGGACGGC	1.04
AGAATGGACA	1.06
TTGAGTCTTC	1.03
ACTACATAAC	1.15
CATTATTTCC	1.12
CCCAGGCCCA	1.19
TGAACCTTGG	1.02
GCCTTTTTAT	0.99
GTCACCTAGC	1.06

Sequence	switch fluorescence ratio
AGCCGTGTTG	1.01
CTCAAATGGG	1.01
AAAGTAAATC	0.998
GGTGACTCAG	1.01
ATTGTGCTTC	0.987
CACCCAAGTG	2.32
ATTGCTCGG	0.931
TCTATGGAA	1.03
ACCATTTGTT	1.02
CAAACGATTT	1.01
TCTGTGTTCC	1.06
ATAGAAGATG	0.996
TTTTTCACAC	0.982
TTCGTCCGGG	0.973
TAGATAAGAT	0.958
TTCGCGCTGG	0.979
GTAATTATGG	0.964
ACCATCGGCG	0.978
TCTATAAAAG	0.991
CAACGCGTCG	1.01
ATACCCAAGA	0.999
ATTTTTCTT	0.999
AAGGGCAGAC	1.11

Sequence	switch fluorescence ratio
GGTCGTAATT	1.08
ACTGATCTGG	1.02
AGAAATGGCT	0.988
TTCCGGTAT	1.73
ACGTTTCTGC	0.994
AATGTGCTAT	1.04
TTCACTGGA	0.862
TTAGTAAACG	0.956
CCGCGTGGTT	1.02
TAGTGCCAAA	1.02
TACTTGTACG	1.13
GTTGCTCATA	0.955
CTCTTGTCAG	0.998
GGGGGCATG	0.99
ACTTGTGCCA	0.965
AGGATAGTA	1.01
GGGGAAAGC	0.941
TATTGGGACT	0.986
ATAGTTACGT	1.03
ACGGGAATAG	1.38
CCTCGAGAAG	1.2
GCAATTCCGC	1.42
CTATTTGCGT	0.992

Sequence	switch fluorescence ratio
CCACGTGTCG	0.989
AGATTTGTGC	0.971
GTATGTTTCC	1.11
CCCATGCGTC	1.01
CGACCTCGG	1.02
TCGGGCGTTG	0.989
CCAGTTCACA	1.01
AACGTCTTGT	0.986
TTAACCCGTT	0.986
CGAATTTCTA	1.01
GTATTGCTAG	1.01
GTCACCAGGT	2.2
TCGGGCTGCA	0.94
AGTCTTTGCA	0.972
ACGCATCCGC	1.61
ATGAAGAGGA	1.01
CGGTGAGCCT	0.997
GGGATAGGTG	1.11
CATTTAGCCT	1.08
CGGTTATGAA	1
ACTATCGTGT	1.05
GAACCTACCT	2.02
TTCGGCTACT	1.06

Sequence	switch fluorescence ratio
GCCCCGAGGT	1.04
TCGTCATTAT	1.04
TCGTGGGTGA	1.01
ATTTAAGACT	0.972
ACGATGTAGG	0.999
GACGTGCCAA	1.16
AATAAAACAT	1.01
CGTGACCTAG	1.01
CATTCCGGGC	1.65
TAATACTGC	1.05
GATCGCACA	1.62
TATAAGAGTA	0.999
TTAAGTATAA	1
ACACATCAAG	1.03
AGCGCTTCGG	0.964
CCAATTGAT	1
AGCTGCGGCA	1
ATTGTATCGG	0.998
CTAGTCCAAC	1.07
TTTCTGCATC	1.79
ACATTATTGG	1.04
GTTAGTCAAG	0.985
ACTACGGCAG	1.08

Sequence	switch fluorescence ratio
TGTGAAAGAA	0.977
GCTCTAAACA	1.02
TAAAAGAA	0.948
TTGGGCAAAT	1.01
TCGTCAGGGA	1.04
TTGGGGACCA	1
TTCTGCTGA	1.02
AAAAGCCTCG	0.945
GCGGACTTTG	1.01
CCTCGGGTCA	1.21
TTTTGAGACA	1.02
CTTCTCTGAT	0.956
CCTTATATAG	1.08
TGTTCCCCGA	1.01
GGCGCGCTTG	1
TCATAAGTAG	0.992
TGTTAATAGG	0.993
GAGAATGCT	1
GTGCACTACC	1.02
ACGTATCACA	1.18
ACATTGTAAC	1.07
GGGTGCCCGT	0.943
AGACTCAGG	0.967

Sequence	switch fluorescence ratio
CATACTGCTA	1.17
TTCTGATAGG	0.961
TTGTGCTATG	0.951
TGCTACTATA	1.11
AGAGGTGCCA	0.972
CCAAAGATGG	1.01
ATAGGGTATT	1.24
GGAGGTGTTT	1.05
ACTGGGGGCA	0.968
TATATGGA	1.02
AGCGTGACGA	1.03
CCCAGAGGAA	1.07
TGCAAGTCCG	1.02
CAGCGTCTGA	1.01
TCTGGGATGA	0.924
TGATAAATGG	0.977
TCTAGAAGGG	0.999
TCCTGGGGGT	1.07
CGGGGCTCTG	1.01
